# Reference: PubChem BioAssay AID686979 (National Center for Advancing Translational Sciences (NCATS), 2013)
# “And” between values parts separate entries of the source, which are not always exact repeats. Equal entries are not always repeated. Hit rate of the full screen: of about 420,000 compounds, about 50,000 (12%) were called active. The shares of active, inactive and inconclusive entries below differ from those in the screen. The call rests on the fitted dose curve; in most records, active means well fitted inhibition curve with a large enough effect; inconclusive means small, poorly fitted or top-dose-only effect; inactive means flat fitted curve, though single readings scatter. Potencies of inconclusive entries are doubtful fits and often do not repeat.
# Assay: qHTS for Inhibitors of human tyrosyl-DNA phosphodiesterase 1 (TDP1): qHTS in cells in presence of CPT; further: nearly all actives have a fitted effect of over 55% in size
# Conditions: chicken DT40 Tdp1-/-;hTDP1 cells + 20 nM CPT, ATP luminescence, 48 h; series mostly up to 46.2 µM
# Method in brief: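 Chicken DT40 Tdp1-/- cells stably complemented with human TDP1 were seeded at 400 cells/well in medium containing 20 nM camptothecin, exposed to pin-transferred compounds, and grown at 37 °C for at least 48 hr. Viability was read as ATP luminescence.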
# Potency means the concentration at half of the fitted maximal effect; tags describe the fitted curve by direction and shape.
row,SMILES,Potency
1,CCn1c(C2CC(=O)N(c3cc(C)cc(C)c3)C2)nc2ccccc21 (stereo unspecified),"inconclusive: 29.1 µM [inhibitor, single point]"
2,COCC1CCN(Cc2cn(-c3ccccc3F)nc2-c2cc(C)sc2C)CC1,"inconclusive: 29.1 µM [inhibitor, single point]"
3,Cc1ccc(Nc2ncc3c(n2)CC(C)(C)CC3=O)cc1,"inconclusive: 18.4 µM [inhibitor, single point]"
4,N#Cc1nc(COc2ccc(Br)cc2)oc1NCCN1CCOCC1,"inconclusive: 35.5 µM [inhibitor, partial curve, poor fit]"
5,CCCCOc1ccc(C(=O)OCC(=O)N2CCCCCC2)cc1,"inconclusive: 6.51 µM [inhibitor, single point]"
6,CCOC(=O)C1=C(C)Nc2ncnn2C1/C=C/c1ccccc1 (stereo unspecified),"inconclusive: 23.1 µM [inhibitor, single point]"
7,COCC(=O)N1CCCC(C(=O)c2ccc(-c3ccccc3)cc2)C1 (stereo unspecified),"inconclusive: 29.1 µM [inhibitor, single point]"
8,Cc1ccc(C)c(NC(=S)NC(C)C(c2cccs2)N2CCOCC2)c1 (stereo unspecified),"inconclusive: 25.9 µM [inhibitor, single point]"
9,CCOC(=O)c1[nH]c(C)c(CCC(=O)Nc2ccc(N(CC)CC)cc2C)c1C,active: 23.1 µM
10,Oc1ccc(/C=N/Nc2nccnc2Cl)c(O)c1,active: 3.26 µM
11,CC1=C(C(=O)N(C)C)CC(CC(=O)NCc2cccs2)C(=O)N1Cc1ccc(C(C)(C)C)cc1 (stereo unspecified),"inconclusive: 18.4 µM [inhibitor, single point]"
12,CCOc1ccc(CCNc2nc3c(c(=O)n(C)c(=O)n3C)n2CC)cc1OCC,active: 15.8 µM
13,CCN1C[C@@H]2[C@@H]3C(=O)N(Cc4ccccc4)C(=O)[C@@H]3[C@](Cc3ccccc3)(C1=O)N2C(=O)c1ccc(C(F)(F)F)cc1,inactive
14,CC1(C2CC2)NC(=O)N(CC(=O)N2CCN(c3cccc(C(F)(F)F)c3)CC2)C1=O (stereo unspecified),active: 14.6 µM
15,CS(=O)(=O)N(CC(=O)Nc1cccc([N+](=O)[O-])c1)c1ccccc1F,inactive
16,O=C(CCN1CCCCCC1)Nc1ccc2c(c1)OCCO2,inactive
17,CCCCn1c2c(c(=N)c3ccccc31)CCC2,"inconclusive: 29.1 µM [inhibitor, single point]"
18,CC(NC(=O)c1ccco1)C(=O)OCc1cccc(Cl)c1 (stereo unspecified),"inconclusive: 16.4 µM [inhibitor, partial curve]"
19,CC(C)OC(=O)c1cccc(C(=O)OCc2ccco2)n1,"inconclusive: 20.6 µM [inhibitor, single point]"
20,COC(=O)c1ccccc1NC(=O)N1c2ccccc2Sc2ccccc21,active: 18.4 µM
21,CCC(C)Nc1nnnc2c1sc1nc3c(cc12)COC(C)(C)C3 (stereo unspecified),"inconclusive: 29.1 µM [inhibitor, single point]"

row,SMILES,Potency
1,COc1ccccc1-c1c(C)nn2c(C)cc(C)nc12,"inconclusive: 25.9 µM [inhibitor, single point]"
2,O=C(NCc1ccncc1)C1CCCCC1,"inconclusive: 29.1 µM [inhibitor, single point]"
3,Cc1nc(C)c(C(=O)OC(C)C(=O)Nc2ccc(F)cc2)s1 (stereo unspecified),"inconclusive: 18.4 µM [inhibitor, single point]"
4,Cc1sc(NC(=O)Cn2cnnn2)nc1-c1ccc(Cl)cc1,"inconclusive: 25.9 µM [inhibitor, single point]"
5,COc1ccc(CCNC(=O)C(=O)c2c[nH]c3ccccc23)cc1,"inconclusive: 29.1 µM [inhibitor, single point]"
6,COc1ccccc1NC(=O)COC(=O)/C=C/c1ccc(OC)c(OC)c1,"inconclusive: 16.4 µM [inhibitor, single point]"
7,O=C(NCc1ccco1)c1cc(-c2ccccc2)nn1CC1CC(c2cccc([N+](=O)[O-])c2)=NO1 (stereo unspecified),"inconclusive: 25.9 µM [inhibitor, single point]"
8,Cc1nc(-c2ccc(F)cc2)sc1CCNC(=O)c1ccco1,"inconclusive: 29.1 µM [inhibitor, single point]"
9,O=C(N=C1SC2CS(=O)(=O)CC2N1c1ccc(OC(F)(F)F)cc1)C1CC1 (stereo unspecified),inactive
10,COC(=O)c1cc(-c2c(-c3ccc4c(c3)OCO4)noc2-c2ccsc2)cc([N+](=O)[O-])c1,"inactive and inconclusive: 35.5 µM [inhibitor, single point]"
11,COc1cc(NC(=O)Cn2c(C)cc3ccccc3c2=O)cc(OC)c1OC,"inconclusive: 29.1 µM [inhibitor, single point]"
12,CCN(CC)CCNC(=O)c1ccc2c(=O)n(C3CCCC3)c(=S)[nH]c2c1,"inconclusive: 13 µM [inhibitor, partial curve]"
13,CN1c2ccccc2Oc2nnc(N3CCN(Cc4ccccc4)CC3)cc21,"inconclusive: 20.6 µM [inhibitor, single point]"
14,Cc1ccc(NC(=O)C2(S(=O)(=O)c3ccc(Cl)cc3)CC2)c(Br)c1,"inconclusive: 14.6 µM [inhibitor, partial curve]"
15,CCOc1ccccc1C(=O)Nc1ccc2nc3n(c(=O)c2c1)CCCCC3,"inconclusive: 5.17 µM [inhibitor, single point]"
16,Cc1c(C(=O)N2CCN(Cc3ccccc3)CC2)oc2c1C(=O)CC(C)(C)C2,"inconclusive: 29.1 µM [inhibitor, single point]"
17,CSc1ccc(CCNC(=O)C(C)n2c(C)c3cnn(-c4ccccc4)c(=O)c3c2C)cc1 (stereo unspecified),active: 25.9 µM
18,CCOC(=O)c1cc(-c2ccccc2)n(CCCC(=O)Nc2cccc(Cl)c2C)c1C,"inconclusive: 25.9 µM [inhibitor, single point]"
19,COC(=O)c1sccc1NC(=O)CSc1ccccc1NS(=O)(=O)c1cc(Cl)ccc1Cl,"inconclusive: 16.4 µM [inhibitor, single point]"
20,CCOc1ccc(CN(C)C(=O)CN2C(=O)NC3(CCCc4ccccc43)C2=O)cc1 (stereo unspecified),"inconclusive: 18.4 µM [inhibitor, partial curve]"
